Molecules are shown by their SMILES. Out of some 39,000 compounds screened, about 220 (0.56%) showed activity. The list shows a part of the results.
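Note: static incubation at 37 °C against the wild-type strain, values averaged over two biological replicates.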

This experiment deals with Escherichia coli K-12 BW25113. The experiment is described as follows: relative growth (OD600 normalised to plate interquartile mean) (fraction); higher = less growth inhibition, active = 0.2 or less. The conditions noted are these: 50 µM; LB; incubation time: overnight (16-24 h).
For the molecule `C[C@H]1CCCCO[C@@H](CN(C)Cc2ccc(C(F)(F)F)cc2)[C@@H](C)CN([C@@H](C)CO)C(=O)c2cc(NC(=O)c3ccccc3)ccc2O1`, the relative growth is inactive: 1.02.

Turning to `C[C@H]1CN([C@@H](C)CO)C(=O)Cc2cc(NS(C)(=O)=O)ccc2O[C@H]1CN(C)Cc1ccc(C(=O)Nc2ccccc2N)cc1`, the relative growth is inactive: 1.01. The same measure for `O=C(C[C@@H]1C=C[C@H](NC(=O)CN2CCOCC2)[C@@H](CO)O1)NCCc1ccccc1`: inactive: 1.02.

Consider `C[C@@H]1CN([C@H](C)CO)S(=O)(=O)c2ccc(C#CCC3CCCC3)cc2O[C@H]1CN(C)C(=O)c1cnccn1`, for which the relative growth is inactive: 0.999. Regarding `O=C(C[C@H]1CC[C@H]2[C@@H](COC[C@H](O)CN2S(=O)(=O)c2ccc(Cl)cc2)O1)NCCN1CCCC1`, the relative growth was inactive: 0.993. The figure for `Cc1noc(C)c1NC(=O)N(C)C[C@@H]1Oc2c(NS(C)(=O)=O)cccc2C(=O)N([C@H](C)CO)C[C@@H]1C` is inactive: 0.996; for `C[C@H](CO)N1C[C@H](C)[C@H](CN(C)C(=O)Nc2ccc(F)cc2)Oc2c(NS(C)(=O)=O)cccc2C1=O` it is inactive: 1.01.

`O=C(CN1CCOCC1)N[C@H]1CC[C@@H](CCn2cc(C3CC3)nn2)O[C@H]1CO`: the relative growth is inactive: 1.03. The same measure for `C[C@@H]1CN([C@@H](C)CO)C(=O)c2cccc(NC(=O)Nc3ccc4c(c3)OCO4)c2O[C@@H]1CN(C)Cc1ccc(Cl)c(Cl)c1`: inactive: 0.984. The figure for `CO[C@@H]1CN(C)C(=O)c2cc(NC(=O)c3ccc(F)cc3)ccc2OC[C@@H](C)N(C(=O)CN(C)C)C[C@@H]1C` is inactive: 1.03.

For `C[C@H](CO)N1C[C@H](C)[C@H](CN(C)Cc2ccc(Oc3ccccc3)cc2)Oc2ccc(NC(=O)Cn3cnnn3)cc2C1=O`, the relative growth is inactive: 1.03. The figure for `COc1ccc([C@H]([C@@H](O)Cc2ccccc2)N(C/C=C/[C@@H](O)c2ccccc2)[C@@H](Cc2ccccc2)C(OC)OC)cc1` is inactive: 1.01; for `NC(=O)c1ccnc(Cl)c1` it is inactive: 0.994; for `COc1ccc(S(=O)(=O)Nc2ccc3c(c2)C(=O)N([C@H](C)CO)C[C@H](C)[C@H](CN(C)C(=O)Nc2ccc(C(F)(F)F)cc2)OCCCC[C@@H](C)O3)cc1` it is inactive: 1. Turning to `C[C@H](CO)N1C[C@H](C)[C@H](CN(C)C(=O)Nc2ccc(C(F)(F)F)cc2)Oc2ccc(NC(=O)Nc3ccc4c(c3)OCO4)cc2CC1=O`, the relative growth was inactive: 1.03. The same measure for `CN(C)CCCCNC(=O)[C@H]1C[C@H]2C(=O)N[C@@H](Cc3ccccc3)C(=O)N2[C@H]1c1cccc(OCCO)c1`: inactive: 0.991; for `CN(C)c1cc(CN)ccn1`: inactive: 0.989; for `C[C@H]1CN([C@@H](C)CO)C(=O)c2cc(NS(=O)(=O)c3cn(C)cn3)ccc2O[C@H]1CN(C)S(=O)(=O)c1cccs1`: inactive: 0.991. The same measure for `COc1ccc(S(=O)(=O)N(C)C[C@@H]2OCCCC[C@@H](C)Oc3ccc(NC(=O)NC4CCCCC4)cc3C(=O)N([C@H](C)CO)C[C@@H]2C)cc1`: inactive: 1.01; for `CC(=O)Nc1nc(C(=O)O)cs1`: inactive: 1.02; for `CN1CCC(=C2c3ccccc3Sc3ccccc32)CC1.O=C(O)C=CC(=O)O`: inactive: 0.967.

As for `CC(C)NC(=O)N(C)C[C@H]1Oc2c(NS(=O)(=O)c3ccccc3)cccc2C(=O)N([C@@H](C)CO)C[C@@H]1C`, the relative growth was inactive: 0.995.

With `CONC(=O)Nc1ccc(-c2sc3c(c2CN(C)Cc2ccccc2)c(=O)n(-c2ccccc2)c(=O)n3Cc2c(F)cccc2F)cc1`, the relative growth was inactive: 1.04.

With `Cc1cc(C(=O)N2CCNC(=O)C2(C)C)no1`, the relative growth is inactive: 1. The same measure for `COc1cc(C=CC(N)=O)cc(OC)c1OC`: inactive: 1.05; for `O=C(NCc1ccccc1)c1cn[nH]n1`: inactive: 0.897; for `C[C@@H]1CN([C@@H](C)CO)C(=O)c2cccc(NS(=O)(=O)c3cn(C)cn3)c2O[C@H]1CN(C)C(=O)Nc1ccccc1`: inactive: 1.

Regarding `C[C@H]1CN([C@@H](C)CO)C(=O)c2cccc(NC(=O)Nc3ccc4c(c3)OCO4)c2O[C@@H]1CN(C)S(=O)(=O)c1cn(C)cn1`, the relative growth was inactive: 0.992.

`CN(C)C(=O)C[C@H]1CC[C@@H](NC(=O)C2CCOCC2)[C@@H](CO)O1`: the relative growth was inactive: 1.01. The figure for `C[C@H]1CN([C@@H](C)CO)S(=O)(=O)c2ccc(C#Cc3ccccc3F)cc2O[C@H]1CN(C)CC1CCOCC1` is inactive: 1.03; for `Cc1ccc(NC2=CC(=O)C[C@H](c3ccc(Cl)cc3)C2)cc1` it is inactive: 1.03; for `O=C1CCN(c2ccccc2)N1` it is inactive: 0.856.

In the case of `COc1ccc2c3c(n(c2c1)C)[C@@H](CO)N(C[C@]13CN(C1)C(=O)Nc1cccc(c1)F)C(=O)CN1CCOCC1`, the relative growth is inactive: 0.87. The figure for `C[C@@H]1CCCCO[C@@H](CN(C)Cc2ccncc2)[C@@H](C)CN([C@@H](C)CO)C(=O)c2cc(NC(=O)Nc3ccc(C(F)(F)F)cc3)ccc2O1` is inactive: 1.02. `C[C@H](CO)N1C[C@H](C)[C@H](CN(C)CC2CC2)OCCCC[C@H](C)Oc2ccc(NS(=O)(=O)c3ccc(Cl)cc3)cc2C1=O`: the relative growth is inactive: 0.977. Consider `COc1ccc2c3c([nH]c2c1)[C@H](CO)N(C[C@]13CCN(CC1)C(=O)NC(C)C)C(=O)CN1CCOCC1`, for which the relative growth was inactive: 0.988. The figure for `c1ccc(NC2CCCCC2)nc1` is inactive: 0.906; for `C=CCOC(=O)[C@H]1[C@@H]2C(=O)O[C@@H](c3ccccc3)[C@@H](c3ccccc3)N2[C@@H](c2ccc(OCCOC(=O)[C@H]3C[C@H]4C(=O)NCC(=O)N4[C@H]3c3ccc(O)cc3)cc2)[C@]12C(=O)Nc1ccccc12` it is inactive: 1.04; for `C[C@H](CO)N1C[C@H](C)[C@H](CN(C)Cc2ccc(-c3ccccc3)cc2)Oc2ccc(NS(=O)(=O)c3ccc(Cl)cc3)cc2C1=O` it is inactive: 1.05. On to `CN(C)CC#Cc1ccc([C@@H]2[C@H]3CN(C(=O)CN(C)C)CC(=O)N3[C@H]2CO)cc1`, for which the relative growth is inactive: 0.991. `NC(=O)[C@H]1CCCCN1`: the relative growth is inactive: 0.997.

On to `CCCCN(CCCC)CCCC.Nc1ncnc2c1ncn2[C@H]1O[C@@H](COP(=O)(O)O)[C@@H](O)[C@@H]1O`, for which the relative growth is inactive: 0.98.

In the case of `O=C(Nc1ccc(-c2nc3cc(NC(=O)c4ccccc4Cl)ccc3o2)cc1)c1ccccc1Cl`, the relative growth is inactive: 1. The figure for `COc1ccc(S(=O)(=O)N(C)C[C@@H]2Oc3c(NC(=O)c4ccncc4)cccc3C(=O)N([C@H](C)CO)C[C@@H]2C)cc1` is inactive: 0.999; for `C[C@H]1CN([C@@H](C)CO)C(=O)c2cc(NC(=O)C3CC3)ccc2O[C@H]1CN(C)Cc1ccc2c(c1)OCO2` it is inactive: 0.978. The same measure for `O=C(O)c1cc2sccc2s1`: inactive: 0.958; for `CO[C@@H]1CN(C)C(=O)c2ccc(NS(=O)(=O)c3cn(C)cn3)cc2OC[C@H](C)N(CC2CC2)C[C@H]1C`: inactive: 0.969. The figure for `C[C@@H]1CN([C@H](C)CO)C(=O)Cc2cc(NC(=O)Cn3cnnn3)ccc2O[C@H]1CN(C)S(=O)(=O)c1cccs1` is inactive: 1.01. `C[C@H]1CCCCO[C@@H](CN(C)C(=O)Cc2ccccc2)[C@@H](C)CN([C@@H](C)CO)C(=O)c2cc(NC(=O)Cc3ccccc3)ccc2O1`: the relative growth is inactive: 1.

Take `COc1ccc(S(=O)(=O)Nc2ccc3c(c2)C(=O)N([C@H](C)CO)C[C@H](C)[C@@H](CN(C)C(=O)Nc2cccc4ccccc24)OCCCC[C@H](C)O3)cc1`: the relative growth is inactive: 1. The figure for `C[C@@H]1CN([C@H](C)CO)S(=O)(=O)c2ccc(-c3cncnc3)cc2O[C@H]1CN(C)C(=O)CN(C)C` is inactive: 1.01. The figure for `CCCCN1CCCCC1C(=O)Nc1c(C)cccc1C.Cl` (centres undefined) is inactive: 1.09; for `COCC#Cc1cnc2c(c1)C(=O)N([C@@H](C)CO)C[C@H](C)[C@H](CN(C)C(=O)CN1CCOCC1)O2` it is inactive: 0.995; for `COc1ccc(COCC23Oc4ccccc4[C@H]([C@H]2COC(=O)c2ccccc2)n2c(c4ccccc4c(-c4ccccc4)c2=O)N3C)cc1` it is inactive: 1.03. Turning to `C[C@H](CO)N1C[C@H](C)[C@H](CN(C)CC2CCCCC2)Oc2ccc(NC(=O)CCN3CCOCC3)cc2C1=O`, the relative growth is inactive: 0.948. The figure for `N#C[C@H](N)c1ccc(Cl)cc1` is inactive: 0.965; for `COc1ccc(NC(=O)N(C)C[C@H]2OCCCC[C@H](C)Oc3ccc(NC(=O)c4ccncc4)cc3C(=O)N([C@@H](C)CO)C[C@H]2C)cc1` it is inactive: 1.04; for `C[C@H]1CN([C@@H](C)CO)C(=O)Cc2cc(NS(=O)(=O)c3ccc(F)cc3)ccc2O[C@H]1CN(C)S(=O)(=O)c1cccs1` it is inactive: 1.

As to `C[C@@H]1CN([C@@H](C)CO)C(=O)c2cc(-c3ccc(C(=O)N(C)C)cc3)cnc2O[C@@H]1CN(C)C(=O)C1CC1`, the relative growth is inactive: 1.01.

With `Cc1noc(C)c1NC(=O)Nc1ccc2c(c1)C(=O)N([C@@H](C)CO)C[C@@H](C)[C@@H](CN(C)C(=O)Nc1ccc(C(F)(F)F)cc1)OCCCC[C@@H](C)O2`, the relative growth is inactive: 1.05. The figure for `CC(C)NC(=O)N(C)C[C@@H]1Oc2ccc(NS(=O)(=O)c3ccc(F)cc3)cc2C(=O)N([C@@H](C)CO)C[C@H]1C` is inactive: 1.01; for `Cc1ccc(S(=O)(=O)Nc2ccc3c(c2)C(=O)N([C@@H](C)CO)C[C@H](C)[C@@H](CN(C)CC2CCCCC2)OCCCC[C@H](C)O3)cc1` it is inactive: 0.965; for `C[C@@H]1CN([C@@H](C)CO)C(=O)c2cc(NC(=O)Nc3ccc(C(F)(F)F)cc3)ccc2O[C@H]1CN(C)Cc1ccccc1` it is inactive: 0.921. The figure for `C[C@H]1CN([C@@H](C)CO)C(=O)c2cc(NS(=O)(=O)c3cn(C)cn3)ccc2O[C@H]1CN(C)Cc1ccc(C(=O)Nc2ccccc2N)cc1` is inactive: 1.04.
